# Data published in patent US11198713B2, “Agents modulating beta-catenin functions and methods thereof” (FOG PHARMACEUTICALS, INC., priority 2017, dated 2021).
# At least one peptide structure holds a part that was inferred or is arguable (an end, a ring closure or a residue).
# System: TCF/LEF Luciferase reporter HEK293 cell lines
# Assay: TCF/LEF reporter assay
# Type: cell-based
# Details: 10 μM, Table 2
# Description: FIG. 2. […] FIG. 2 depicts exemplary data from TCF/LEF reporter assays. Y-axes illustrate luminescence, and X-axes illustrate concentrations of peptides. […] TCF/LEF Luciferase reporter HEK293 cell lines (BPS Bioscience) were treated with dilution series of FP0025c and FP00217c Isomer 2 for 18 hours. 300 ng/mL of Wnt3a (Peprotech) was added to the cells for the final 6 hours of incubation. Luciferase activity was measured using Bright-Glo Luciferase Assay (Promega) according to manufacturer's protocol.
# In some embodiments, a provided assay is a TCF/LEF reporter assay. In some embodiments, in an exemplary such assay, TCF/LEF Luciferase reporter HEK293 cell lines (BPS Bioscience) were treated with dilution series of provided peptides for 18 hours. 300 ng/mL of Wnt3a (Peprotech) was added to the cells for the final 6 hours of incubation. Luciferase activity was measured using Bright-Glo Luciferase Assay (Promega) according to manufacturer's protocol. […] Applicant also notes that teachings of the present disclosure are not restricted to a particular mechanism of action of described agents.
row,SMILES,TCF/LEF Reporter Inhibition at 10 μM [%]
1,"CC[C@H](C)[C@@H]1NC(=O)[C@H](Cc2ccccn2)NC(=O)[C@H](C)NC(=O)[C@H](CC(=O)O)NC(=O)[C@H](CC(C)C)NC(=O)[C@H]([C@@H](C)CC)NC(=O)[C@](C)(NC(=O)[C@H](C)NC(C)=O)CCCCCCC=CCOC(=O)N2CC[C@@](C(=O)N[C@@H](CCCNC(=N)N)C(=O)N[C@H](C(=O)N[C@@H](Cc3c[nH]c4ccccc34)C(N)=O)C(C)C)(C2)NC1=O (single isomer, unassigned) [FP0539c Isomer 2, Ac-A-R8-I-L-D-A-2pyr-I-MB-R-V-W-NH2]",36
2,"CC[C@H](C)[C@@H]1NC(=O)[C@H](Cc2ccccn2)NC(=O)[C@H](C)NC(=O)[C@H](CC(=O)O)NC(=O)[C@H](CC(C)C)NC(=O)[C@H]([C@@H](C)CC)NC(=O)[C@](C)(NC(=O)[C@H](C)NC(C)=O)CCCCCCC=CCOC(=O)N2CC[C@@](C(=O)N[C@@H](C)C(=O)N[C@H](C(=O)N[C@@H](Cc3c[nH]c4ccccc34)C(N)=O)C(C)C)(C2)NC1=O (single isomer, unassigned) [FP0554c Isomer 1, Ac-A-R8-I-L-D-A-2pyr-I-MB-A-V-W-NH2]",29
3,"CC[C@H](C)[C@@H]1NC(=O)[C@H](Cc2ccccn2)NC(=O)[C@H](C)NC(=O)[C@H](CC(=O)O)NC(=O)[C@H](CC(C)C)NC(=O)[C@H]([C@@H](C)CC)NC(=O)[C@](C)(NC(=O)[C@H](C)NC(C)=O)CCCCCCC=CCOC(=O)N2CC[C@@](C(=O)N[C@@H](C)C(=O)N[C@H](C(=O)N[C@@H](Cc3c[nH]c4ccccc34)C(N)=O)C(C)C)(C2)NC1=O (single isomer, unassigned) [FP0554c Isomer 2, Ac-A-R8-I-L-D-A-2pyr-I-MB-A-V-W-NH2]",35
4,"CC[C@H](C)[C@@H]1NC(=O)[C@H](Cc2ccccn2)NC(=O)[C@H](C)NC(=O)[C@H](CC(=O)O)NC(=O)[C@H](CC(C)C)NC(=O)[C@H]([C@@H](C)CC)NC(=O)[C@](C)(NC(=O)[C@H](C)NC(C)=O)CCCCCCC=CCOC(=O)N2CC[C@@](C(=O)N[C@@H](Cc3ccccc3)C(=O)N[C@H](C(=O)N[C@@H](Cc3c[nH]c4ccccc34)C(N)=O)C(C)C)(C2)NC1=O (single isomer, unassigned) [FP0555c Isomer 1, Ac-A-R8-I-L-D-A-2pyr-I-MB-F-V-W-NH2]",43
5,"CC[C@H](C)[C@@H]1NC(=O)[C@H](Cc2ccccn2)NC(=O)[C@H](C)NC(=O)[C@H](CC(=O)O)NC(=O)[C@H](CC(C)C)NC(=O)[C@H]([C@@H](C)CC)NC(=O)[C@](C)(NC(=O)[C@H](C)NC(C)=O)CCCCCCC=CCOC(=O)N2CC[C@@](C(=O)N[C@@H](Cc3ccccc3)C(=O)N[C@H](C(=O)N[C@@H](Cc3c[nH]c4ccccc34)C(N)=O)C(C)C)(C2)NC1=O (single isomer, unassigned) [FP0555c Isomer 2, Ac-A-R8-I-L-D-A-2pyr-I-MB-F-V-W-NH2]",32
6,"CC[C@H](C)[C@@H]1NC(=O)[C@H](Cc2ccccn2)NC(=O)[C@H](C)NC(=O)[C@H](CC(=O)O)NC(=O)[C@H](CC(C)C)NC(=O)[C@H]([C@@H](C)CC)NC(=O)[C@](C)(NC(=O)[C@H](C)NC(C)=O)CCCCCCC=CCOC(=O)N2CC[C@@](C(=O)N[C@H](C(=O)N[C@H](C(=O)N[C@@H](Cc3c[nH]c4ccccc34)C(N)=O)C(C)C)[C@@H](C)CC)(C2)NC1=O (single isomer, unassigned) [FP0556c Isomer 1, Ac-A-R8-I-L-D-A-2pyr-I-MB-I-V-W-NH2]",33
7,"CC[C@H](C)[C@@H]1NC(=O)[C@H](Cc2ccccn2)NC(=O)[C@H](C)NC(=O)[C@H](CC(=O)O)NC(=O)[C@H](CC(C)C)NC(=O)[C@H]([C@@H](C)CC)NC(=O)[C@](C)(NC(=O)[C@H](C)NC(C)=O)CCCCCCC=CCOC(=O)N2CC[C@@](C(=O)N[C@H](C(=O)N[C@H](C(=O)N[C@@H](Cc3c[nH]c4ccccc34)C(N)=O)C(C)C)[C@@H](C)CC)(C2)NC1=O (single isomer, unassigned) [FP0556c Isomer 2, Ac-A-R8-I-L-D-A-2pyr-I-MB-I-V-W-NH2]",38
8,"CC[C@H](C)[C@@H]1NC(=O)[C@H](Cc2ccccn2)NC(=O)[C@H](C)NC(=O)[C@H](CC(=O)O)NC(=O)[C@H](CC(C)C)NC(=O)[C@H]([C@@H](C)CC)NC(=O)[C@](C)(NC(=O)[C@H](C)NC(C)=O)CCCCCCC=CCOC(=O)N2CC[C@@](C(=O)N[C@@H](CC(C)C)C(=O)N[C@H](C(=O)N[C@@H](Cc3c[nH]c4ccccc34)C(N)=O)C(C)C)(C2)NC1=O (single isomer, unassigned) [FP0557c Isomer 1, Ac-A-R8-I-L-D-A-2pyr-I-MB-L-V-W-NH2]",43
9,"CC[C@H](C)[C@@H]1NC(=O)[C@H](Cc2ccccn2)NC(=O)[C@H](C)NC(=O)[C@H](CC(=O)O)NC(=O)[C@H](CC(C)C)NC(=O)[C@H]([C@@H](C)CC)NC(=O)[C@](C)(NC(=O)[C@H](C)NC(C)=O)CCCCCCC=CCOC(=O)N2CC[C@@](C(=O)N[C@@H](CC(C)C)C(=O)N[C@H](C(=O)N[C@@H](Cc3c[nH]c4ccccc34)C(N)=O)C(C)C)(C2)NC1=O (single isomer, unassigned) [FP0557c Isomer 2, Ac-A-R8-I-L-D-A-2pyr-I-MB-L-V-W-NH2]",30
10,"CC[C@H](C)[C@@H]1NC(=O)[C@H](Cc2ccccn2)NC(=O)[C@H](C)NC(=O)[C@H](CC(=O)O)NC(=O)[C@H](CC(C)C)NC(=O)[C@H]([C@@H](C)CC)NC(=O)[C@](C)(NC(=O)[C@H](C)NC(C)=O)CCCCCCC=CCOC(=O)N2CC[C@@](C(=O)N[C@@H](CC(N)=O)C(=O)N[C@H](C(=O)N[C@@H](Cc3c[nH]c4ccccc34)C(N)=O)C(C)C)(C2)NC1=O (single isomer, unassigned) [FP0558c Isomer 1, Ac-A-R8-I-L-D-A-2pyr-I-MB-N-V-W-NH2]",38
11,"CC[C@H](C)[C@@H]1NC(=O)[C@H](Cc2ccccn2)NC(=O)[C@H](C)NC(=O)[C@H](CC(=O)O)NC(=O)[C@H](CC(C)C)NC(=O)[C@H]([C@@H](C)CC)NC(=O)[C@](C)(NC(=O)[C@H](C)NC(C)=O)CCCCCCC=CCOC(=O)N2CC[C@@](C(=O)N[C@@H](CC(N)=O)C(=O)N[C@H](C(=O)N[C@@H](Cc3c[nH]c4ccccc34)C(N)=O)C(C)C)(C2)NC1=O (single isomer, unassigned) [FP0558c Isomer 2, Ac-A-R8-I-L-D-A-2pyr-I-MB-N-V-W-NH2]",40
12,"CC[C@H](C)[C@@H]1NC(=O)[C@H](Cc2ccccn2)NC(=O)[C@H](C)NC(=O)[C@H](CC(=O)O)NC(=O)[C@H](CC(C)C)NC(=O)[C@H]([C@@H](C)CC)NC(=O)[C@](C)(NC(=O)[C@H](C)NC(C)=O)CCCCCCC=CCOC(=O)N2CC[C@@](C(=O)N[C@@H](CCC(N)=O)C(=O)N[C@H](C(=O)N[C@@H](Cc3c[nH]c4ccccc34)C(N)=O)C(C)C)(C2)NC1=O (single isomer, unassigned) [FP0559c Isomer 1, Ac-A-R8-I-L-D-A-2pyr-I-MB-Q-V-W-NH2]",44
13,"CC[C@H](C)[C@@H]1NC(=O)[C@H](Cc2ccccn2)NC(=O)[C@H](C)NC(=O)[C@H](CC(=O)O)NC(=O)[C@H](CC(C)C)NC(=O)[C@H]([C@@H](C)CC)NC(=O)[C@](C)(NC(=O)[C@H](C)NC(C)=O)CCCCCCC=CCOC(=O)N2CC[C@@](C(=O)N[C@@H](CCC(N)=O)C(=O)N[C@H](C(=O)N[C@@H](Cc3c[nH]c4ccccc34)C(N)=O)C(C)C)(C2)NC1=O (single isomer, unassigned) [FP0559c Isomer 2, Ac-A-R8-I-L-D-A-2pyr-I-MB-Q-V-W-NH2]",31
14,"CC[C@H](C)[C@@H]1NC(=O)[C@H](Cc2ccccn2)NC(=O)[C@H](C)NC(=O)[C@H](CC(=O)O)NC(=O)[C@H](CC(C)C)NC(=O)[C@H]([C@@H](C)CC)NC(=O)[C@](C)(NC(=O)[C@H](C)NC(C)=O)CCCCCCC=CCOC(=O)N2CC[C@@](C(=O)N[C@@H](CO)C(=O)N[C@H](C(=O)N[C@@H](Cc3c[nH]c4ccccc34)C(N)=O)C(C)C)(C2)NC1=O (single isomer, unassigned) [FP0560c Isomer 1, Ac-A-R8-I-L-D-A-2pyr-I-MB-S-V-W-NH2]",40
15,"CC[C@H](C)[C@@H]1NC(=O)[C@H](Cc2ccccn2)NC(=O)[C@H](C)NC(=O)[C@H](CC(=O)O)NC(=O)[C@H](CC(C)C)NC(=O)[C@H]([C@@H](C)CC)NC(=O)[C@](C)(NC(=O)[C@H](C)NC(C)=O)CCCCCCC=CCOC(=O)N2CC[C@@](C(=O)N[C@@H](CO)C(=O)N[C@H](C(=O)N[C@@H](Cc3c[nH]c4ccccc34)C(N)=O)C(C)C)(C2)NC1=O (single isomer, unassigned) [FP0560c Isomer 2, Ac-A-R8-I-L-D-A-2pyr-I-MB-S-V-W-NH2]",22
16,"CC[C@H](C)[C@@H]1NC(=O)[C@H](Cc2ccccn2)NC(=O)[C@H](C)NC(=O)[C@H](CC(=O)O)NC(=O)[C@H](CC(C)C)NC(=O)[C@H]([C@@H](C)CC)NC(=O)[C@](C)(NC(=O)[C@H](C)NC(C)=O)CCCCCCC=CCOC(=O)N2CC[C@@](C(=O)N[C@H](C(=O)N[C@H](C(=O)N[C@@H](Cc3c[nH]c4ccccc34)C(N)=O)C(C)C)[C@@H](C)O)(C2)NC1=O (single isomer, unassigned) [FP0561c Isomer 1, Ac-A-R8-I-L-D-A-2pyr-I-MB-T-V-W-NH2]",38
17,"CC[C@H](C)[C@@H]1NC(=O)[C@H](Cc2ccccn2)NC(=O)[C@H](C)NC(=O)[C@H](CC(=O)O)NC(=O)[C@H](CC(C)C)NC(=O)[C@H]([C@@H](C)CC)NC(=O)[C@](C)(NC(=O)[C@H](C)NC(C)=O)CCCCCCC=CCOC(=O)N2CC[C@@](C(=O)N[C@H](C(=O)N[C@H](C(=O)N[C@@H](Cc3c[nH]c4ccccc34)C(N)=O)C(C)C)[C@@H](C)O)(C2)NC1=O (single isomer, unassigned) [FP0561c Isomer 2, Ac-A-R8-I-L-D-A-2pyr-I-MB-T-V-W-NH2]",35
